Whole data set: some 2,300 sequences, median “median log2 fold change of GCK-ALFA target abundance (FLAG IP / Myc IP barcode read proportion)” near 0.095, cut for the lowest 2% near -0.47. Some of the results follow.
B1: LC3A_28_1323 (protein)
chain: SHIKEELEKAEKEAEEQAAKGEDITLTVKITGSTTLEEAKEMMEKLEEIAEKYAPKRKVNIIIDLDGKVKQEVIDLISEKAEEIEKKYPNVTVIIALDEE
B2: LC3A_147_459 (protein)
chain: MVVEVDLIVKSEKAVEEIKADFEALVAELKARGYDVELEIEVEKLDENTYYVRVTIRVKAETKEEAERIKNEILSRVDEIIEKHKDEILGALISAEFEEP
B3: LC3A_28_1310 (protein)
chain: TPIEERLAAARAEAEEAAARGEPVVVTIPITAEEAEKNLELILAGLEELGEVASRVPDAAIIIDVDEKVDPEHLTKIAERAEEIEERYPNVTVIIAIEDN
B4: LC3A_28_918 (protein)
chain: MTPEEIKAAIKAAVDKAIAEGKEAHIEIEIGSDTTPEEAREIMEALRKEVARAAAAGLEVDITVDLDDVSQEVLDIVADALDEIEEEYPKASAIIALDED
B5: LC3A_3_1569 (protein)
chain: SEERIEAALARLREAGFSEEVIAAARKALEALAAKGAYEAMDRFVDAMLEMKDAPEELLIAFAEDVLEIVETSKDDLETIQKKIDEEITIYLNESEIIEL
B6: LC3A_3_1555 (protein)
chain: MEELREETLEELRRAGASEEVLEAARETLEALEARGYEEAARTLVEEVREMLDLPDEILLDFLEEVRELIETEDLDEETVIERIRELATIARNEGEIEEL
B7: LC3A_3_1719 (protein)
chain: MEEIIEEIIETLKKQGRSEETIEAARKLAEALKEKGYLEALKTLLELLKEAKDISDEIMLDMLKELLYIVENEDLSEEELIKKIKEEFKVAKLEEEIEEL
B8: LC3A_45_1971 (protein)
chain: MARVTIHLLVPREKAEEALRIIREEFERLEEEYGGKIEFDREALEASYEASKDEEEVYLEVIITAETRELALDAADRIVDTLNERLGENVAAIIEVEELP
B9: LC3A_17_551 (protein)
chain: KEEIKKELEKLLKELEKLVKKLEEYDPEKAKKLKKKLEEAKKLLEEGKLEEAAKLLAETADELANVFDELEPKYGVEASVLSMEASGLELEAIGLLLKLE
B10: LC3A_147_415 (protein)
chain: MTVEVSIDLLGRLSDEEIEELVEELKKVGEEFGAEVEVKVRVEDLPGGRRYVEIDITLKGVEKEKAQPLINALIDTVDKFVEKYKDKIDGALISSEAIED
B11: LC3A_free_8_2519 (protein)
chain: KSKAFAQRVVAILEELEKEIVKLLKEKGASRLDILEAELLIGSIIAEVISLQDKSPEEIIKAVKEGLKELVEELEKYKEEVKKLAEEALKKIEAAKKELE
B12: LC3A_3_1804 (protein)
chain: SEEKIKELLEKLKEAGKSEETIEAVREALEKLKERGYEEALKTFIEEMEELIDVPDELLLRLAKDVLEYLETNDDSEEETKEFIKEEARLTKLEAEIEEL
B13: LC3A_102_140 (protein)
chain: SLEEKVEEKIKELLEEMKKFLEKDKSLSEEEKKEILELTEKALKAAAKNTITELQHGYTDIVAEDELLENLEKLKKISEKVAEKAKELIKKLEEYIKKLL
B14: LC3A_59_2036 (protein)
chain: APTAEEIVAQIIATLNKAAKELEKAGDDMAAAKKIIDAMMAEVDALLAELAKVDPELAAEVKAELDAMKEELAKAKTVKEMADIVRTTALGIELILNELD
B15: LC3A_3_1493 (protein)
chain: MEELLERVREVLEELGASPEEIERVLEDARELLERGYEKTVERLIELLRRYRHLSPRDLVAAALTVADVAIEENLSEEEAVEKAERIFEDVAEIEELDEE
B16: LC3A_28_865 (protein)
chain: SKTEESAEEALKEAKEAKAKGESTVIVIRIYGKASEEEIDKVIEALKEIAEILKDIPNQGIIIEAEEPIDPEQLKKLADAADEIEKKYPNVTVIIALPEE
B17: LC3A_28_785 (protein)
chain: SEIEENVEKAIEEAREAKEKGESVVITIKVPGDATEEDIEKVIEALEEIAEILEGVEDQAIIIDVDSDVKPEHIKKLAEKAEEIEEKYPNVTVIIALEEK
B18: LC3A_free_46_2375 (protein)
chain: MRIEIYAYKEGWTEEEAKALAEEIAEAIKKVAEELGVEVEIKTEVVKNADGSYLVKVTVEIKAPTKEKALEAEKAILDTVDKILKERGAAAIISVEEIEE
B19: LC3A_3_1716 (protein)
chain: AEKIKEETLEELRKKGASEETIKAAEELLNELIEKGYLEALKTLLEEVKKMKGISSEILLAMFKDLLHIVKTEDLDEEELIKEIKREFRIAKSENEIEEL
B20: LC3A_3_1432 (protein)
chain: MEELLEEARRVLEEAGFDEETREAVLRLLRLALEAGKEEEARELIEVLKEAKNVDSEKVREAAERALRRIEEEGVPVEEAVREFIDELRVLRLETEIEEL
B21: LC3A_3_1820 (protein)
chain: MEAERAETLAELAAAGASPETLAAVNEAVEALIEKGYYEAAKTLIELMRELKDLPSELLLEFAQEVLELIKTSDLSEEEMTKEIKKIASTVRNEAEIEEL
B22: LC3A_free_8_2538 (protein)
chain: MKEELRKKASEIIDETIEKVEEAGKKLGLDRLDILDLELLLGEALIEIHELDTESIEDVKADVEESLNEAIKLAKELSPEIAKIVEEAKKKVLELLDEME
B23: LC3A_3_1708 (protein)
chain: GEEILKEAKEILEKQGRSEETKKAVLEAIKALLEKGYYEAAKTFVELLKEAENLSDEIVKDFAEDVKAFVESGDKSEEEVIEFIKEEYETAKNEQEIIEL
B24: LC3A_3_1882 (protein)
chain: MEERVKKTIELLKKAGASEETIKAFEETAKLLKERGYEKALETLIEEVEKLKDLSDELLLDFLKEVLKVVKEEDLNEEELIKRIKEIARLTRNEGEIEEL
B25: LC3A_28_1249 (protein)
chain: MEVEKQIEEAKKKVEEAVKKGEEALVTLTVTKDSNEEDVDKIIEAMYEIAELGKDLPSLTIIVDVEKGVPEKHINKLADAGEEIEEKYPNVTVIIALEEE
B26: LC3A_free_46_2299 (protein)
chain: YEGNIDVFIDGLTKEQAEELAKEIREKAKEIAEKYGVELEIDVEIEKNEDGTYSLNINITLRHEDKEVLEKAASEIIDEIDRLASKYNAASIISLEFKEI
B27: LC3A_28_958 (protein)
chain: SALEEELEKALKEAKEAAKKGEPAVITIKVPGDANEEDIEKVIKALYEIAEILKDIKGAAIIVDVDGKVKQEHIDKIADAAEEIEKKYPNVTVILALDEE
B28: LC3A_free_0_2123 (protein)
chain: MLMVVELLIILDPSTSEEKAEKFEKKLKEEAEKLGEKYGAEVEFEVSKVDGSTVITITLRKEGMSLDEALEIADELSDAAEKIAKEEGLDVTIYESVYRE
B29: LC3A_147_400 (protein)
chain: ALVEVDIDVLTNGDEEVIEELVEALRETAEALGARVEVEVELEREEGEIYARIRLRLETSDDPEEIQRLEDALLDTIDEWLEKNKDKVLGALISVSVERR

What follows are binders tested against MAP1LC3A, Q9H492 (assay: median log2 fold change of GCK-ALFA target abundance (FLAG IP / Myc IP barcode read proportion) (log2 ratio); each designed protein is fused to an ALFA-tag nanobody in HEK293 cells to bring the named protein to FLAG-tagged glucokinase (GCK); Myc marks an untargeted standard; higher = target protein stabilised (more abundant)). Conditions: target protein: 3xFLAG-MCP-GCK-ALFA reporter; HEK293 landing pad (RPLP).
Procedure, shortened: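 HEK293 landing-pad cells received a recombined binder library fused to the ALFA nanobody and were induced with 2 μg mL^−1 doxycycline, then transfected with a plasmid encoding a FLAG-tagged target and a Myc-tagged standard. Lysates were collected after 48 h for anti-FLAG and anti-Myc immunoprecipitation, and the circular RNA barcodes were reverse transcribed, amplified and sequenced. Target abundance for each binder is the median log2 ratio of FLAG to Myc barcode read proportions. Barcodes had to reach a proportion of at least 10^−7 in both replicates, each binder needed at least 3 barcodes per replicate, a pseudocount of 10^−6 was applied, and the two replicates were pooled.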

Row | Binder | median log2 fold change
1 | B1 | 0.19
2 | B2 | -0.008
3 | B3 | 0.0746
4 | B4 | 0.108
5 | B5 | 0.227
6 | B6 | 0.181
7 | B7 | 0.0215
8 | B8 | -0.000266
9 | B9 | -0.051
10 | B10 | -0.146
11 | B11 | -0.243
12 | B12 | 0.12
13 | B13 | 0.288
14 | B14 | 0.356
15 | B15 | -0.221
16 | B16 | 0.279
17 | B17 | 0.0676
18 | B18 | -0.0699
19 | B19 | 0.281
20 | B20 | 0.493
21 | B21 | 0.287
22 | B22 | 0.0891
23 | B23 | 0.187
24 | B24 | 0.45
25 | B25 | 0.172
26 | B26 | 0.137
27 | B27 | -0.00119
28 | B28 | -0.348
29 | B29 | -0.235

— the supplement of paper PMC12632987
